Reference: PubChem BioAssay AID720708 (National Center for Advancing Translational Sciences (NCATS), 2013)
The campaign covered roughly 360,000 compounds. About 660 (0.18%) were called active. The inconclusive results got no clear call from the source; some entries with a clear call stand among them for comparison. The call rests on the fitted dose curve; in most records, active means well fitted inhibition curve with a large enough effect; inconclusive means small, poorly fitted or top-dose-only effect; inactive means no such curve, though single readings can be large or run the other way. No potency is given beside an inconclusive call; the fits are too rough.

These compounds were tested against Rap guanine nucleotide exchange factor 4 (Homo sapiens) (UniProt Q8WZA2) (assay: qHTS for Antagonist of cAMP-regulated guanine nucleotide exchange factor 2 (EPAC2): primary screen). Settings: EPAC2 GEF exchange of Rap1B-BODIPY-GDP, fluorescence; activity, negative = inhibition: at 114 µM (top of the series) unless noted.
Further: nearly all actives have a fitted effect of over 45% in size.
On the % scale 0 is the no-effect control and ±100 the full control effect; potency means the concentration at half of the fitted maximal effect; tags describe the fitted curve by direction and shape.

UniProt Q8WZA2, sequence (Q8WZA2 whole entry, looked up): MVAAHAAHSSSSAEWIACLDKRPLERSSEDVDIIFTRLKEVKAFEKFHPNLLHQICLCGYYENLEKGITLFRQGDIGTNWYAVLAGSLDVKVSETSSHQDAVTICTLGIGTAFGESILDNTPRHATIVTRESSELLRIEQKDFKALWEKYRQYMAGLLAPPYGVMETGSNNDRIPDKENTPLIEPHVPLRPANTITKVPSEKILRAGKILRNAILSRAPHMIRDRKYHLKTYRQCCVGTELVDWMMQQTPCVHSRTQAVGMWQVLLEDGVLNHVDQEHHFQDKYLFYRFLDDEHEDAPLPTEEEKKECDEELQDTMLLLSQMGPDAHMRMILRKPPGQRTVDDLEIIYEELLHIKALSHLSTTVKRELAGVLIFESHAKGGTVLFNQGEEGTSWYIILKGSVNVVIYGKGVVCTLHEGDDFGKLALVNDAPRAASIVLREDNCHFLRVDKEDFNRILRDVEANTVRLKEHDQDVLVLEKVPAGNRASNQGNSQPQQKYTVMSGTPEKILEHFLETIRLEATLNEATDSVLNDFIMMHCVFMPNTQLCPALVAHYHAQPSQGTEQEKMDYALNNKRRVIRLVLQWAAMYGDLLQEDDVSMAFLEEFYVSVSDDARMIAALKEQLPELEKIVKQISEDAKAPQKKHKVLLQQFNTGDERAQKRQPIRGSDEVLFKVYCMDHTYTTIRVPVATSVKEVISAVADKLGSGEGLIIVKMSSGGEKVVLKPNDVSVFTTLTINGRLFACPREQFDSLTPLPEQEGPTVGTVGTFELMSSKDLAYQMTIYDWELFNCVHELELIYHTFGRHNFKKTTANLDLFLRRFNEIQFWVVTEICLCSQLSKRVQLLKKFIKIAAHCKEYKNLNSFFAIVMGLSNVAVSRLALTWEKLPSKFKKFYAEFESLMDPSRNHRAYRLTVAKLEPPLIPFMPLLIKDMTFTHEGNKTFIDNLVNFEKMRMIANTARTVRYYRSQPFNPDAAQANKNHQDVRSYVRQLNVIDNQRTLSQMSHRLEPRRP

Compound	Potency	activity, negative = inhibition
COc1ccc(-c2ccnc3c(Br)c(C)nn23)cc1	inconclusive [inhibitor, partial curve]	–
CC(C)C(=O)NC(=S)/C=C1/N(C)c2ccccc2C1(C)C	–	inactive: 2.04%
O=C(Cc1c(Cl)cccc1Cl)Nc1ccncc1	inconclusive [inhibitor, full curve]	–
CCOC(=O)C1=CCC(c2ccc(C#N)cc2)N(S(=O)(=O)c2ccc(C)cc2)C1 (stereo not drawn)	–	inactive: 3.06%
O=C(Nc1ccc(Cl)cc1)N1CCCN(c2ccc(C(F)(F)F)cc2[N+](=O)[O-])CC1	–	inconclusive: -16.6% [inhibitor]
CC(NC(=O)CSc1cccc(C(F)(F)F)c1)c1ccccc1 (stereo not drawn)	inconclusive [inhibitor, single point]	–
COc1ccc(-c2csc(N3CCC(C(N)=O)CC3)n2)cc1	–	inactive: -15.1%
COc1ccc(C2c3ccc(O)cc3Oc3ncn4nc(-c5ccco5)nc4c32)cc1OC (stereo not drawn)	inconclusive [inhibitor, partial curve]	–
O=S(=O)(c1ccccc1)N(Cc1nc(-c2ccccc2)no1)C1CCCCC1	–	inactive: -8.97%
CC(=O)Nc1nc(C)c(Cc2ccccc2)c(=O)[nH]1	inconclusive [inhibitor, single point]	–
Cc1cc(Cl)c(C)c(S(=O)(=O)N2CCN(CC(=O)N3CCOCC3)CC2)c1Cl	inconclusive [inhibitor, single point]	–
CC(=O)Oc1ccc2occ(-c3ccccc3)c2c1	inconclusive [inhibitor, partial curve]	–
O=[N+]([O-])c1ccc(N=Nc2ccc(O)cc2O)cc1	–	inactive: -7.43%
Oc1ccccc1CNc1cccc2cccnc12	inconclusive [inhibitor, single point]	–
Cc1cccc(Cn2nc(-n3cccc3)c3c(C)cc(C)nc32)c1	inconclusive [inhibitor, partial curve]	–
Cc1cc(C)n2nc(SCC(N)=O)nc2n1	inconclusive [inhibitor, single point]	–
COc1cc(NC(=O)CN2C(=O)NC(C)(c3ccc(OC(F)F)cc3)C2=O)cc(OC)c1OC (stereo not drawn)	inconclusive [inhibitor, full curve]	–
N#CC1=C(N)C2=CCCC[C@H]2[C@H](c2ccc(Br)cc2)C1(C#N)C#N	–	inactive: 19.2%
O=C(COC(=O)CCCOc1ccc(Cl)cc1Cl)NCc1ccccc1	–	inactive: -10.8%
O=c1ccc(-c2ccccc2)nn1Cc1ccccc1F	inconclusive [inhibitor, single point]	–
CCCC1C(=O)Nc2ccccc2N1C(=O)c1ccc(C(C)(C)C)cc1 (stereo not drawn)	inconclusive [inhibitor, full curve]	–
CC(=O)c1c(-c2ccccc2)c2cc([N+](=O)[O-])ccc2[nH]c1=O	inconclusive [inhibitor, full curve, poor fit]	–
Cc1ccc2c(c1)c(/C=C/c1cc[n+](C)cc1)c(C)n2C	–	inactive: 2.28%
CCc1ccc(C(=O)COC(=O)c2cccs2)cc1	inconclusive [inhibitor, partial curve]	–

Compound	Potency	activity, negative = inhibition
CCCCOC(=O)Nc1ccc(S(=O)(=O)Nc2nccs2)cc1	inconclusive [inhibitor, full curve]	–
CCN1C(=O)N[C@@H](c2ccc(Br)cc2)C(C(=O)OC)=C1C	–	inconclusive: -30.5% [inhibitor]
CN(C)c1ccc(NC(=O)COC(=O)CNC(=O)c2cccs2)cc1	–	inactive: -2.74%
O=C(/C=C/c1ccco1)NC(=S)Nc1cccc([N+](=O)[O-])c1	–	inactive: -5.07%
Cc1ccc(NC(=O)c2c(Cl)n(C)c3ccccc23)cc1	inconclusive [inhibitor, single point]	–
CC(=O)/C(C#N)=C1\NC(=O)C(Cc2ccc(C)c(Cl)c2)S1 (stereo not drawn)	inconclusive [inhibitor, full curve]	–
COc1ccc(OCc2ccc(/C=N\NC(=O)c3sccc3C)o2)cc1	–	inactive: -1.42%
FC(F)Oc1ccc(/C=N/n2c(Cc3ccc(Br)cc3)n[nH]c2=S)cc1	–	inactive: -15.7%
COc1ccc(S(=O)(=O)NCCc2cn3nc(C)c(C)nc3n2)cc1F	–	inactive: 0.161%
CCOP(=O)(OCC)C(Nc1ccc(F)cc1)c1ccccc1 (stereo not drawn)	–	inactive: 2.01%
COC(=O)c1cc(=O)nc2sc(-c3cccs3)nn12	–	inactive: 3.83%
C/C(=N\NC(=O)c1c(Cl)c(C)nn1C)c1cccc(NC(=O)c2cccc(F)c2)c1	inconclusive [inhibitor, partial curve]	–
O=C1C(Cc2ccccc2)Nc2ncnc(N3CCCCC3)c2N1Cc1ccc(Br)cc1 (stereo not drawn)	inconclusive [inhibitor, partial curve]	–
N#Cc1c(-c2ccccc2)nc(SCC(=O)Nc2ccccc2)[nH]c1=O	–	inactive: -6.18%
COc1ccc(NC(=O)CN2CCN(CC#N)CC2)cc1	–	inactive: -2.68%
CC1CCCC(C)N1S(=O)(=O)c1ccc(NC(=O)CNC2CCCC2)cc1 (stereo not drawn)	inconclusive [inhibitor, single point]	–
Cn1cc([C@]2(O)C(=O)Nc3c(F)cccc32)c2ccccc21	inconclusive [inhibitor, full curve]	–
CC(=O)c1sc(NC(=O)c2ccccc2C)nc1C	–	inactive: 12.8%
COc1cc2cnc(-c3ccccc3)c(C(=O)c3ccc(F)cc3)c2cc1OC	inconclusive [inhibitor, single point]	–
O=C(/C=C/[C@H]1O[C@@H](n2ccc(=O)[nH]c2=O)[C@H](O)[C@@H]1O)N1CCN(Cc2ccc(F)cc2)CC1	inconclusive [inhibitor, single point]	–
CCCCC[C@@H](/C=C/C1C(=O)C=C[C@H]1C/C=C\CCCC(=O)O)OC(C)=O (stereo partly drawn)	inconclusive [inhibitor, full curve]	–
CSc1ncccc1C(=O)OCc1c(F)cccc1Cl	inconclusive [inhibitor, partial curve]	–
Cc1ccc(F)c(C2=CC(=O)C[C@H](c3ccc(F)cc3)C2)c1	–	inactive: 4.82%
COc1ccc(-c2oc3cccnc3c2-c2ccc(OC)nc2)cc1	inconclusive [inhibitor, full curve]	–
